Experimental data from US20140243322A1, “BIVALENT BROMODOMAIN LIGANDS, AND METHODS OF USING SAME” (Coferon, Inc., priority 2011, published 2014).
Some entries share one result that the patent states for a list of compounds.

Tests used:
Assay type in all cases: binding
Settings in all cases: 1 μM protein; test compounds at 0.5, 1 or 2 μM; vs DMSO control
BRD2 tandem = experiment: Differential Scanning Fluorimetry (DSF), BRD2 tandem
BRD3 tandem = experiment: Differential Scanning Fluorimetry (DSF), BRD3 tandem
BRD4 tandem = experiment: Differential Scanning Fluorimetry (DSF), BRD4 tandem

SMILES | Temperature Shift (Δ Tm) range, BRD2 tandem (BRD2 tandem) | Temperature Shift (Δ Tm) range, BRD3 tandem (BRD3 tandem) | Temperature Shift (Δ Tm) range, BRD4 tandem (BRD4 tandem)
CCNC(=O)C[C@@H]1N=C(c2ccc(Cl)cc2)c2cc(OCCNC(=O)C[C@@H]3N=C(c4ccc(Cl)cc4)c4cc(OC)ccc4-n4c(C)nnc43)ccc2-n2c(C)nnc21 [BRD-B-01, N-(2-(((S)-6-(4-chlorophenyl)-4-(2-(ethylamino)-2-oxoethyl)-1-methyl-4H-benzo[f][1,2,4]triazolo[4,3-a][1,4]diazepin-8-yl)oxy)ethyl)-2-((S)-6-(4-chlorophenyl)-8-methoxy-1-methyl-4H-benzo[f][1,2,4]triazolo[4,3-a][1,4]diazepin-4-yl)acetamide] | C (0.5-3° C.) | C (0.5-3° C.) | –
CCNC(=O)C[C@@H]1N=C(c2ccc(Cl)cc2)c2cc(OCCCNC(=O)C[C@@H]3N=C(c4ccc(Cl)cc4)c4cc(OC)ccc4-n4c(C)nnc43)ccc2-n2c(C)nnc21 [BRD-B-02, N-(3-(((4S)-6-(4-chlorophenyl)-4-(2-(ethylamino)-2-oxoethyl)-1-methyl-4H-benzo[f][1,2,4]triazolo[4,3-a][1,4]diazepin-8-yl)oxy)propyl)-2-((4S)-6-(4-chlorophenyl)-8-methoxy-1-methyl-4H-benzo[f][1,2,4]triazolo[4,3-a][1,4]diazepin-4-yl)acetamide] | B (3-6° C.) | B (3-6° C.) | C (0.5-3° C.)
CCNC(=O)C[C@@H]1N=C(c2ccc(Cl)cc2)c2cc(OCCOCCNC(=O)C[C@@H]3N=C(c4ccc(Cl)cc4)c4cc(OC)ccc4-n4c(C)nnc43)ccc2-n2c(C)nnc21 [BRD-B-03, N-(2-(2-(((4S)-6-(4-chlorophenyl)-4-(2-(ethylamino)-2-oxoethyl)-1-methyl-4H-benzo[f][1,2,4]triazolo[4,3-a][1,4]diazepin-8-yl)oxy)ethoxy)ethyl)-2-((4S)-6-(4-chlorophenyl)-8-methoxy-1-methyl-4H-benzo[f][1,2,4]triazolo[4,3-a][1,4]diazepin-4-yl)acetamide] | C (0.5-3° C.) | – | C (0.5-3° C.)
CCNC(=O)C[C@@H]1N=C(c2ccc(Cl)cc2)c2cc(OCCOCCOCCNC(=O)C[C@@H]3N=C(c4ccc(Cl)cc4)c4cc(OC)ccc4-n4c(C)nnc43)ccc2-n2c(C)nnc21 [BRD-B-04, N-(2-(2-(2-(((S)-6-(4-chlorophenyl)-4-(2-(ethylamino)-2-oxoethyl)-1-methyl-4H-benzo[f][1,2,4]triazolo[4,3-a][1,4]diazepin-8-yl)oxy)ethoxy)ethoxy)ethyl)-2-((S)-6-(4-chlorophenyl)-8-methoxy-1-methyl-4H-benzo[f][1,2,4]triazolo[4,3-a][1,4]diazepin-4-yl)acetamide] | B (3-6° C.) | A (6-9° C.) | C (0.5-3° C.)
CCNC(=O)C[C@@H]1N=C(c2ccc(Cl)cc2)c2cc(OCCOCCOCCOCCNC(=O)C[C@@H]3N=C(c4ccc(Cl)cc4)c4cc(OC)ccc4-n4c(C)nnc43)ccc2-n2c(C)nnc21 [BRD-B-05, N-(2-(2-(2-(2-(((S)-6-(4-chlorophenyl)-4-(2-(ethylamino)-2-oxoethyl)-1-methyl-4H-benzo[f][1,2,4]triazolo[4,3-a][1,4]diazepin-8-yl)oxy)ethoxy)ethoxy)ethoxy)ethyl)-2-((S)-6-(4-chlorophenyl)-8-methoxy-1-methyl-4H-benzo[f][1,2,4]triazolo[4,3-a][1,4]diazepin-4-yl)acetamide] | B (3-6° C.) | B (3-6° C.) | C (0.5-3° C.)
COc1ccc2c(c1)C(c1ccc(Cl)cc1)=N[C@@H](CC(=O)NCCNC(=O)NCCNC(=O)C[C@@H]1N=C(c3ccc(Cl)cc3)c3cc(OC)ccc3-n3c(C)nnc31)c1nnc(C)n1-2 [BRD-B-06, (S)—N,N′-((carbonylbis(azanediyl))bis(ethane-2,1-diyl))bis(2-((S)-6-(4-chlorophenyl)-8-methoxy-1-methyl-4H-benzo[f][1,2,4]triazolo[4,3-a][1,4]diazepin-4-yl)acetamide)] | C (0.5-3° C.) | C (0.5-3° C.) | C (0.5-3° C.)
